In a protein production outcome set (Wang et al. 2014) one finds protein production data, which are given here for three sequences.

This series in a line: label from the status in PepcDB records.
On to “METSSPRPPRPSSNPGLSLDARLGVDTRLWAKVLFTALYALIWALGAAGNALSVHVVLKARAGRAGRLRHHVLSLALAGLLLLLVGVPVELYSFVWFHYPWVFGDLGCRGYYFVHELCAYATVLSVAGLSAERCLAVCQPLRARSLLTPRRTRWLVALSWAASLGLALPMAVIMGQKHELETADGEPEPASRVCTVLVSRTALQVFIQVNVLVSFVLPLALTAFLNGVTVSHLLALCSQVPSTSTPGSSTPSRLELLSEEGLLSFIVWKKTFIQGGQVSLVRHKDVRRIRSLQRSVQVLRAIVVMYVICWLPYHARRLMYCYVPDDAWTDPLYNFYHYFYMVTNTLFYVSSAVTPLLYNAVSSSFRKLFLEAVSSLCGEHHPMKRLPPKPQSPTLMDTASGFGDPPETRT”, for which the protein production entry is given as “failed”.

Regarding “MKLIVGMTGATGAXLGVALLQALREMPNVETHLVMSKWAKTTIELETPYSARDVAALADFSHNPADQAATISSGSFRTDGMIVIPCSMKTLAGIRAGYADGLVGRAADVVLKEGRKLVLVPREMPLSTIHLENMLALSRMGVAMVPPMPAFYNHPETVDDIVHHVVARVLDQFGLEHPYARRWQGLPQARNFSQENE”, the protein production result is given as “not failed”.

For the sequence “MVFAHRMDNSKPHLIIPTLLVPLQNRSCTETATPLPSQYLMELSEEHSWMSNQTDLHYVLKPGEVATASIFFGILWLFSIFGNSLVCLVIHRSRRTQSTTNYFVVSMACADLLISVASTPFVLLQFTTGRWTLGSATCKVVRYFQYLTPGVQIYVLLSICIDRFYTIVYPLSFKVSREKAKKMIAASWIFDAGFVTPVLFFYGSNWDSHCNYFLPSSWEGTAYTVIHFLVGFVIPSVLIILFYQKVIKYIWRIGTDGRTVRRTMNIVPRTKVKTIKMFLILNLLFLLSWLPFHVAQLWHPHEQDYKKSSLVFTAITWISFSSSASKPTLYSIYNANFRRGMKETFCMSSMKCYRSNAYTITTSSRMAKKNYVGISEIPSMAKTITKDSIYDSFDREAKEKKLAWPINSNPPNTFV”, the protein production result is recorded as “failed”.
